The structures appear in SMILES notation. Where a name gives a salt, the structure may show the parent alone. The list shows a part of the results. Many values rest on one well or one pass, so single values are uncertain.
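Note: viability estimated indirectly by image-based GFP quantification with live-cell imaging of the constitutively GFP-expressing human colorectal cancer line, no immune cells added.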

For this assay, the system named is HCT116-GFP. Kind of assay: HCT116-GFP viability (GFP intensity) relative to untreated control, monoculture; higher = less cancer cell killing. The settings on record: culture: HCT116-GFP monoculture; 10 µM; 72 h.
As for `N#CC(c1ccc(Cl)cc1)c1c(Cl)cc(-n2ncc(=O)[nH]c2=O)cc1Cl` (stereo not drawn) [Diclazuril], the HCT116-GFP viability stood at 51.3%.

`COc1cc(OC)c(C(=O)CCCN2CCCC2)c(OC)c1` [Buflomedil hydrochloride]: the HCT116-GFP viability was determined as 86%.

On to `COc1ccccc1N1CCN(CC(O)COc2cccc3ccccc23)CC1` (stereo not drawn) [Naftopidil dihydrochloride], for which the HCT116-GFP viability was 68.9%.

As to `CN1CCCC(CC2c3ccccc3Sc3ccccc32)C1` (stereo not drawn) [Metixene hydrochloride], the HCT116-GFP viability came out at 65.1%.

In the case of `CN1CCC(=C2c3ccccc3CC(=O)c3sccc32)CC1` [Ketotifen fumarate], the HCT116-GFP viability is 75.1%.

`CCN1C(=O)NC(c2ccccc2)C1=O` (stereo not drawn) [Ethotoin]: the HCT116-GFP viability amounted to 102%.

Regarding `CCCN(CCC)C(=O)C(CCC(=O)O)NC(=O)c1ccccc1` (stereo not drawn) [Proglumide], the HCT116-GFP viability was 100%.

Regarding `COc1ccc2c(c1)N(C[C@H](C)CN(C)C)c1ccccc1S2` [Methotrimeprazine maleat salt], the HCT116-GFP viability came out at 87.4%.

With `CC(C)(Sc1cc(C(C)(C)C)c(O)c(C(C)(C)C)c1)Sc1cc(C(C)(C)C)c(O)c(C(C)(C)C)c1` [Probucol], the HCT116-GFP viability stood at 90.8%.

`Cn1ccnc1S` [Methimazole]: the HCT116-GFP viability was 97.1%.

In the case of `Nc1c(Br)cc(Br)cc1CN[C@H]1CC[C@H](O)CC1` [Ambroxol hydrochloride], the HCT116-GFP viability is 100%.

`CN(C)CC/C=C1\c2ccccc2CSc2ccccc21` [Dosulepin hydrochloride]: the HCT116-GFP viability amounted to 67.3%.

Take `CC(C)(Oc1ccc(Cl)cc1)C(=O)O` [Clofibric acid]: the HCT116-GFP viability is 86.1%.

For the compound `Cn1c(=O)c2c(ncn2CC(=O)O)n(C)c1=O` [Acefylline], the HCT116-GFP viability was 88.9%.

Consider `Cc1cc(C(=O)NNCc2ccccc2)no1` [Isocarboxazid], for which the HCT116-GFP viability was 95.2%.

As to `CO[C@H]1C[C@H](O[C@H]2[C@H](C)[C@@H](O[C@@H]3O[C@H](C)C[C@H](N(C)C)[C@H]3OC(C)=O)[C@@H](C)C[C@@]3(CO3)C(=O)[C@H](C)[C@@H](OC(C)=O)[C@@H](C)[C@@H](C)OC(=O)[C@@H]2C)O[C@@H](C)[C@@H]1OC(C)=O` [Troleandomycin], the HCT116-GFP viability was determined as 98%.

As to `COc1ccc(-c2ccc(=N)n(CCCC(=O)O)n2)cc1` [Gabazine bromide], the HCT116-GFP viability is 101%.

On to `CN1CCN(C2=Nc3cc(Cl)ccc3Nc3ccccc32)CC1` [Clozapine], for which the HCT116-GFP viability worked out at 98.8%.

In the case of `C[C@@H]1NC(=O)NC1=O` [Methylhydantoin-5-(L)], the HCT116-GFP viability came to 99.4%.

`Cc1ccc(-c2ncc(Cl)cc2-c2ccc(S(C)(=O)=O)cc2)cn1` [Etoricoxib]: the HCT116-GFP viability was 103%.

Consider `CC1CCc2c(N3CCC(O)CC3)c(F)cc3c(=O)c(C(=O)O)cn1c23` (stereo not drawn) [Nadifloxacin], for which the HCT116-GFP viability amounted to 87%.

On to `Clc1ccc(COC(Cn2ccnc2)c2ccc(Cl)cc2Cl)c(Cl)c1` (stereo not drawn) [Miconazole], for which the HCT116-GFP viability came out at 53.5%.

Consider `Cc1cc(=O)n(-c2ccccc2)n1C` [Antipyrine], for which the HCT116-GFP viability is 93.4%.

For the compound `NC12CC3CC(CC(C3)C1)C2` [Adamantamine fumarate], the HCT116-GFP viability turned out to be 110%.

`O=c1cc(-c2ccc(O)c(O)c2)oc2cc(O)cc(O)c12` [Luteolin]: the HCT116-GFP viability came out at 68.3%.

In the case of `CC(C)(C(=O)c1cccnc1)c1cccnc1` [Metyrapone], the HCT116-GFP viability was found to be 87.7%.

Take `CC(=O)N(O)CCCCCNC(=O)CCC(=O)N(O)CCCCCNC(=O)CCC(=O)N(O)CCCCCN` [Deferoxamine mesylate]: the HCT116-GFP viability was 16.4%.

Take `CC(C)(S)C(N)C(=O)O` (racemic) [D,L-Penicillamine]: the HCT116-GFP viability is 90.7%.

For `CCN[C@H]1C[C@H](C)S(=O)(=O)c2sc(S(N)(=O)=O)cc21` [Dorzolamide hydrochloride], the HCT116-GFP viability is 91.2%.

For `O=C1Cc2cc(CCN3CCN(c4nsc5ccccc45)CC3)c(Cl)cc2N1` [Ziprasidone  Hydrochloride], the HCT116-GFP viability was 68.5%.

For the compound `CC(C)/N=c1\cc2n(-c3ccc(Cl)cc3)c3ccccc3nc-2cc1Nc1ccc(Cl)cc1` [Clofazimine], the HCT116-GFP viability was found to be 4.05%.

On to `C[C@@H]1[C@H](O)[C@@H](C)/C=C/C=C/C=C/C=C/C=C/C=C/C=C/[C@H](O[C@@H]2O[C@H](C)[C@@H](O)[C@H](N)[C@@H]2O)C[C@@H]2O[C@](O)(C[C@@H](O)C[C@@H](O)[C@H](O)CC[C@@H](O)C[C@@H](O)CC(=O)O[C@H]1C)C[C@H](O)[C@H]2C(=O)O` [Amphotericin B], for which the HCT116-GFP viability was 129%.

Consider `CO[C@@]1(NC(=O)CSCC#N)C(=O)N2C(C(=O)O)=C(CSc3nnnn3C)CS[C@@H]21` [Cefmetazole sodium salt], for which the HCT116-GFP viability stood at 110%.

For `CC(C)NC[C@H](O)COc1ccc(CC(N)=O)cc1` [(S)-(-)-Atenolol], the HCT116-GFP viability stood at 97.1%.

As to `CCOC(=O)C(C)(C)Oc1ccc(Cl)cc1` [Clofibrate], the HCT116-GFP viability is 90.8%.

Turning to `CN1CCc2cccc3c2[C@H]1Cc1ccc(O)c(O)c1-3` [R(-) Apomorphine hydrochloride hemihydrate], the HCT116-GFP viability was found to be 6.74%.

Regarding `CCC(NC(C)C)C(O)c1ccc(O)c(O)c1` (stereo not drawn) [Isoetharine mesylate salt], the HCT116-GFP viability was determined as 7.17%.

`CCC(Cc1c(I)cc(I)c(N)c1I)C(=O)O` (stereo not drawn) [Iopanoic acid]: the HCT116-GFP viability was found to be 112%.

As to `O=C1NCN(c2ccccc2)C12CCN(CCCC(c1ccc(F)cc1)c1ccc(F)cc1)CC2` [Fluspirilen], the HCT116-GFP viability came to 46.8%.

`CC(C)(C)C(=O)OCOC(=O)[C@@H]1N2C(=O)[C@@H](NC(=O)[C@H](N)c3ccccc3)[C@H]2SC1(C)C` [Pivampicillin]: the HCT116-GFP viability is 91.5%.

As to `N=C(N)NC(=O)c1nc(Cl)c(N)nc1N` [Amiloride hydrochloride dihydrate], the HCT116-GFP viability amounted to 103%.

`CCCCOC(=O)c1ccc(N)cc1` [Butamben]: the HCT116-GFP viability was found to be 101%.

In the case of `CCOc1ccccc1OCC1CNCCO1` (stereo not drawn) [Viloxazine hydrochloride], the HCT116-GFP viability came to 99.2%.

Regarding `CC[C@H]1OC(=O)[C@H](C)[C@@H](O[C@H]2C[C@@](C)(OC)[C@@H](O)[C@H](C)O2)[C@H](C)[C@@H](O[C@@H]2O[C@H](C)C[C@H](N(C)C)[C@H]2O)[C@](C)(OC)C[C@@H](C)C(=O)[C@H](C)[C@@H](O)[C@]1(C)O` [Clarithromycin], the HCT116-GFP viability is 86.6%.

For `N[C@@H]1CCCCN(c2c(F)cc3c(=O)c(C(=O)O)cn(C4CC4)c3c2Cl)C1` [Besifloxacin hydrochloride], the HCT116-GFP viability was found to be 98%.

As to `CCCCC1=NC2(CCCC2)C(=O)N1Cc1ccc(-c2ccccc2-c2nnn[nH]2)cc1` [Irbesartan], the HCT116-GFP viability worked out at 88.8%.

`CNS(=O)(=O)Cc1ccc2[nH]cc(CCN(C)C)c2c1` [Sumatriptan succinate]: the HCT116-GFP viability was determined as 95.2%.

Turning to `CN[C@H](CC(C)C)C(=O)N[C@H]1C(=O)N[C@@H](CC(N)=O)C(=O)N[C@H]2C(=O)N[C@H]3C(=O)N[C@H](C(=O)N[C@H](C(=O)O)c4cc(O)cc(O)c4-c4cc3ccc4O)[C@H](O)c3ccc(c(Cl)c3)Oc3cc2cc(c3O[C@@H]2O[C@H](CO)[C@@H](O)[C@H](O)[C@H]2O[C@H]2C[C@](C)(N)[C@H](O)[C@H](C)O2)Oc2ccc(cc2Cl)[C@H]1O` [Vancomycin hydrochloride], the HCT116-GFP viability is 95.4%.

In the case of `NS(=O)(=O)c1cc2c(cc1Cl)N=CNS2(=O)=O` [Chlorothiazide], the HCT116-GFP viability worked out at 91.8%.

`CCOc1ccc2c(c1)C(C)=CC(C)(C)N2` [Ethoxyquin]: the HCT116-GFP viability was determined as 72.5%.

Take `CCOC(=O)[C@H](CCc1ccccc1)N[C@@H](C)C(=O)N1[C@H](C(=O)O)C[C@@H]2CCC[C@@H]21` [Ramipril]: the HCT116-GFP viability is 90.8%.

In the case of `NC(=O)c1ncn([C@@H]2O[C@H](CO)[C@@H](O)[C@H]2O)n1` [Ribavirin], the HCT116-GFP viability came to 74.7%.

With `CC(C)COCC(CN(Cc1ccccc1)c1ccccc1)N1CCCC1` (stereo not drawn) [Bepridil hydrochloride], the HCT116-GFP viability turned out to be 53.8%.

Regarding `NS(=O)(=O)c1cc(C(=O)O)c(NCc2ccco2)cc1Cl` [Furosemide], the HCT116-GFP viability is 86.4%.

Consider `COc1cc(C(=O)NS(=O)(=O)c2ccccc2C)ccc1Cc1cn(C)c2ccc(NC(=O)OC3CCCC3)cc12` [Zafirlukast], for which the HCT116-GFP viability was 88.8%.

On to `Cc1cc(C2CCCCC2)n(O)c(=O)c1` [Ciclopirox ethanolamine], for which the HCT116-GFP viability amounted to 11.7%.

Consider `Cc1cccc(C)c1NC(=O)C1CCCCN1C` (stereo not drawn) [Mepivacaine hydrochloride], for which the HCT116-GFP viability was 76.7%.

Take `Cc1ncc([N+](=O)[O-])n1CC(O)CCl` (stereo not drawn) [Ornidazole]: the HCT116-GFP viability was 91%.

As to `CN1C(C(=O)Nc2ccccn2)=C(O)c2sccc2S1(=O)=O` [Tenoxicam], the HCT116-GFP viability amounted to 99.3%.

`C[C@]12CC[C@H]3C(=CCc4cc(O)ccc43)[C@@H]1CCC2=O` [Equilin]: the HCT116-GFP viability came out at 104%.

With `C=C[C@H]1CN2CC[C@H]1C[C@@H]2[C@@H](O)c1ccnc2ccc(OC)cc12` [Quinidine hydrochloride monohydrate], the HCT116-GFP viability was found to be 109%.

`CS(=O)(=O)c1ccc(C2=C(c3ccccc3)C(=O)OC2)cc1` [Rofecoxib]: the HCT116-GFP viability is 85.6%.

`Cn1c(=O)c2[nH]cnc2n(C)c1=O` [Aminophylline]: the HCT116-GFP viability is 91.5%.

For `Cc1[nH]c(=O)c(C#N)cc1-c1ccncc1` [Milrinone], the HCT116-GFP viability amounted to 107%.

In the case of `CN(C)CCC=C1c2ccccc2CCc2ccccc21` [Amitryptiline hydrochloride], the HCT116-GFP viability turned out to be 72.5%.

Regarding `Cc1ccnc2c1NC(=O)c1cccnc1N2C1CC1` [Nevirapine], the HCT116-GFP viability is 75.5%.

Regarding `CCN(CC)CCOC(=O)C(c1ccccc1)C1CCCCC1` (stereo not drawn) [Drofenine hydrochloride], the HCT116-GFP viability was found to be 100%.

For the compound `COCC1=C(C(=O)OC(C)OC(=O)OC(C)C)N2C(=O)[C@@H](NC(=O)/C(=N\OC)c3csc(N)n3)[C@H]2SC1` (stereo partly drawn) [Cefpodoxime proxetil], the HCT116-GFP viability turned out to be 86.9%.

For the compound `COc1cc(Cc2cnc(N)nc2N)cc(OC)c1OC` [Trimethoprim], the HCT116-GFP viability is 89.3%.

In the case of `O=C(CCCN1CCC(O)(c2ccc(Br)cc2)CC1)c1ccc(F)cc1` [Bromperidol], the HCT116-GFP viability turned out to be 67.8%.

Consider `CC(=O)c1ccc2c(c1)N(CCCN1CCC(CCO)CC1)c1ccccc1S2` [Piperacetazine], for which the HCT116-GFP viability was 86%.

For `CO[C@@]1(NC(=O)Cc2cccs2)C(=O)N2C(C(=O)O)=C(COC(N)=O)CS[C@@H]21` [Cefoxitin sodium salt], the HCT116-GFP viability amounted to 103%.

Take `CCCCC(CC)CN1CN(CC(CC)CCCC)CC(C)(N)C1` (stereo not drawn) [Hexetidine]: the HCT116-GFP viability worked out at 93.9%.

For the origin of these results see the supplement of paper PMC9938546.
